Measured values published in PubChem BioAssay (Tox21).
Values joined by “and” are separate entries in the source; they are usually repeats but may differ in a detail not shown here. Identical values can stand only once. Inconclusive means that the source gave no clear call. Such entries were picked first, then a sample of the others. Where the call is inconclusive, the potency comes from a doubtful curve fit. Active and inactive are the calls of the source. Calls come from the whole dose curve; as a rule, active = well fitted cell-killing curve with a large enough effect in the repeat runs; inconclusive = weak or mixed curves, or effect the other way; inactive = flat fitted curve, though single readings scatter.

Experiments:
[1] = cAMP Responsive Elements (CRE) small molecule antagonists, cell-based qHTS assay: qHTS cell viability counter screen (AID 2060913); details: CRE-bla HEK293T viability, CellTiter-Glo luminescence, 5 h; series mostly up to 92.4 µM; note: nearly all actives have a fitted effect of over 40% in size
How it was run: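 Cytotoxicity read in the same wells as the CRE-bla HEK293T antagonist assay: after 3 h compound with 0.25 uM NKH477 final and 2 h beta-lactamase substrate, CellTiter-Glo luminescence measured.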

[2] = cAMP Responsive Elements (CRE) small molecule agonists, cell-based qHTS assay: qHTS cell viability counter screen (AID 2060914); details: CRE-bla HEK293T viability, CellTiter-Glo luminescence, 5 h; series mostly up to 92.4 µM;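 note: viability read after 3 h of compound exposure; nearly all actives have a fitted effect of over 50% in size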
How it was run: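 Cytotoxicity counter screen multiplexed with the CRE-bla reporter assay in HEK 293T cells: 3 h compound exposure at 37 °C, followed by CellTiter-Glo luminescence measured in the same wells.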
Potency is the fitted concentration of half-maximal effect; tags give direction and shape of the fitted curve.

SMILES	Potency [1]	Potency [2]
O=[N+]([O-])c1ccc2c(c1)Cc1ccccc1-2	inconclusive: 35.9 µM [rising, single point]	
CC(C)(N=C=O)c1cccc(C(C)(C)N=C=O)c1	inactive	
CCC(C)C(=O)OCCc1ccccc1 (centres undefined)	inactive	
NC(=O)N[C@@H](CCC(=O)O)C(=O)O	inactive	
O=C(O)c1cc(O)c2ccccc2c1O	inconclusive: 9.69 µM [cytotoxic, partial curve]	
CC(C)c1ccc2c(C(C)C)cc(C(C)C)c(S(=O)(=O)O)c2c1	inactive	
CCOC(C)(C)C	inactive	
OCC(O)[C@@H](O)[C@H](O)[C@H](O)CO[C@H]1O[C@H](CO)[C@@H](O)[C@H](O)[C@H]1O (some centres undefined)	inactive	
OC1(c2ccc(Cl)cc2)CCNCC1	inactive	
Cc1c2ccccc2c(C)c2c1ccc1ccccc12	inconclusive: 42.8 µM [cytotoxic, partial curve, poor fit] and inconclusive: 61.1 µM [cytotoxic, single point]	
CCCCOC(O)CC (centres undefined)	inactive	
CCCCC(CC)COCC1CO1 (centres undefined)	inconclusive: 1.28 µM [cytotoxic, single point]	
C=C1CC[C@H](O)C/C1=C\C=C1/CCC[C@]2(C)[C@@H]([C@H](C)CCCC(C)C)CC[C@@H]12	inconclusive: 60.6 µM [cytotoxic, single point]	
CC(C)C(OC(=O)c1ccccc1)C(C)(C)COC(=O)c1ccccc1 (centres undefined)	inconclusive: 61.1 µM [cytotoxic, single point]	
COc1ccc(/C=C/S(=O)(=O)NC(=O)c2ccc(C)cc2Cl)cc1	inactive	
Cc1ccc2c(c1)CCCN2	inconclusive: 25.4 µM [rising, single point]	
CC(O)COCC(C)O (centres undefined)	inactive	

SMILES	Potency [1]	Potency [2]
C=CCSCC1Nc2cc(Cl)c(S(N)(=O)=O)cc2S(=O)(=O)N1 (centres undefined)	inactive	
O=CC=C(c1ccccc1)c1ccccc1	inconclusive: 30.9 µM [cytotoxic, partial curve, poor fit]	
COC(=O)C1=C(C)NC(C)=C(C(=O)OCC(C)C)C1c1ccccc1[N+](=O)[O-] (centres undefined)	inactive	
C=C[C@@]1(C)CC(=O)[C@]2(O)[C@@]3(C)[C@@H](O)CCC(C)(C)[C@@H]3[C@H](O)[C@H](OC(C)=O)[C@@]2(C)O1	inconclusive: 30.6 µM [cytotoxic, partial curve]	
OC[C@@H](O)[C@@H](O)CO	inactive	
OC(CN1CCC(Cc2ccc(F)cc2)CC1)c1ccc(Cl)cc1 (centres undefined)	inactive	
O=C=NCC1CCCC(CN=C=O)C1 (centres undefined)	inactive	
CC(C)(c1cc(Br)c(O)c(Br)c1)c1cc(Br)c(O)c(Br)c1	inconclusive: 68.3 µM [cytotoxic, single point] and inconclusive: 76.7 µM [cytotoxic, partial curve, poor fit]	
CCCCCCCCCCCC(=O)N(CC)CC	inactive	
COc1ccccc1N1CCN(CCCNc2cc(=O)n(C)c(=O)n2C)CC1	inactive	
S=c1[nH]c2ccccc2s1	inconclusive: 0.227 µM [cytotoxic, single point]	inconclusive: 243 nM [cytotoxic, single point]
Cc1ccc(O)c(-n2nc3ccccc3n2)c1	inconclusive: 60.6 µM [cytotoxic, partial curve]	inconclusive: 68 µM [cytotoxic, single point] and inconclusive: 54.5 µM [cytotoxic, partial curve]
COC(=O)C1=C(C)NC(C)=C(C(=O)OCCCN2CCC(c3ccccc3)(c3ccccc3)CC2)C1c1cccc([N+](=O)[O-])c1 (centres undefined)	inconclusive: 29.8 µM [cytotoxic, partial curve, poor fit]	inactive
CC(C)CCCCCCc1ccc(O)cc1	active: 55.4 µM and active: 27.3 µM	active: 55.4 µM and active: 30.6 µM
C#CC1(O)CC[C@H]2[C@@H]3CCC4=CCCC[C@@H]4[C@H]3CC[C@@]21C (some centres undefined)	inconclusive: 54.5 µM [cytotoxic, single point]	inconclusive: 68600 nM [cytotoxic, single point]
CCCCCCCCCCCCCC[N+](C)(C)C	active: 52.7 µM and active: 48.5 µM and inconclusive: 23.7 µM [cytotoxic, partial curve]	active: 52.7 µM and inconclusive: 6.11 µM [cytotoxic, full curve, poor fit] and inconclusive: 13.3 µM [cytotoxic, partial curve]
